# Reference: PubChem BioAssay AID624296 (National Center for Advancing Translational Sciences (NCATS), 2012)
# The whole screen tested about 350,000 compounds, of which about 9,900 (2.8%) were called active. This list was built around the results that the source calls inconclusive (neither active nor inactive); the mix of calls is not that of the screen. Calls follow the shape of the dose curve; as a rule, active = well fitted activation curve with a large enough effect; inconclusive = small, poorly fitted or top-dose-only effect; inactive = no such curve, though single readings can be large or run the other way. Potencies of inconclusive entries are left out as doubtful fits.
# Test: A quantitative high throughput screen for small molecules that induce DNA re-replication in MCF 10a normal breast cells. Also: nearly all actives have a fitted effect of over 50% in size. As to activity, positive = re-replication: % of control where 0% means no effect.
# Settings: MCF 10A DNA re-replication, Hoechst nuclear intensity, 48 h; activity, positive = re-replication: at 46.1 µM (top of the series)
# Potency is read from the fitted curve at half-maximal effect; tags tell the direction and shape of the fitted curve.
SMILES,"activity, positive = re-replication",Potency
O=C(CCC1CCCCC1)Nc1cccnc1,inactive: 11.3%,–
COC(=O)c1sccc1NC(=O)CSc1ccccc1N,–,"inconclusive [activator, single point]"
COc1ccc(CNS(=O)(=O)c2ccc(-c3ccc(=O)[nH]n3)s2)cc1OC,–,"inconclusive [activator, partial curve, poor fit]"
C/C=C/c1ccc(OCCOc2ccc(C=O)cc2OC)c(OC)c1,–,"inconclusive [activator, partial curve, poor fit]"
CCn1c(C)c(CS(=O)(=O)c2ccccc2)[nH]c1=O,–,active: 7.31 µM
Cc1ccc(C)c(NC(=O)CSc2nnc(-c3ccccc3)o2)c1,inactive: -3.76%,–
COCCNCc1nc2sc(C)c(-c3ccccc3)c2c(=O)[nH]1,–,"inconclusive [activator, full curve, poor fit]"
COc1ccc(/C=C(\C)c2nc(C)c(-c3ccccc3)c(=O)[nH]2)cc1,–,"inconclusive [activator, partial curve]"
C/C(=N\Nc1nc(C)cc(-c2ccccc2)n1)c1ccccc1,inactive: 0.625%,–
COc1ccc(-c2nc3ccccc3n2Cc2ccc(C)cc2)cc1,–,"inconclusive [activator, single point]"
CCOc1cc(C2c3c(oc4cc(C)c(Cl)cc4c3=O)C(=O)N2Cc2ccco2)ccc1O (stereo not given),–,"inconclusive [activator, full curve, poor fit]"
Clc1ccc(N=NN2CCOCC2)cc1,–,"inconclusive [activator, full curve, poor fit]"
O=C(Nc1ccccc1NC(=O)c1ccccc1Cl)c1ccccc1Cl,inactive: 4.26%,–
Cn1nccc1C(=O)Nc1ccn(C23CC4CC(CC(C4)C2)C3)n1,inactive: 7.86%,–
O=C(Nc1ccc(Cl)c(Cl)c1)c1ccc(Cn2cc(Cl)cn2)cc1,–,"inconclusive [activator, single point]"
Fc1ccc(-n2nnc(-c3ccnc4ccccc34)n2)cc1,–,"inconclusive [activator, single point]"
O=C(N/N=C/c1ccc2c(c1)OCO2)c1cccc2ccccc12,–,active: 16.4 µM
CCOC(=O)c1ccc(NC(=O)CN(c2ccc(C)cc2)S(=O)(=O)c2c(C)n[nH]c2C)cc1,–,"inconclusive [activator, partial curve]"
O=C(CCC1COc2ccccc2O1)NCC1COc2ccccc2O1 (stereo not given),–,"inconclusive [activator, partial curve, poor fit]"
CCOc1ccccc1C(=O)N[C@H](C(=O)Nc1cc(S(=O)(=O)N(C)C)ccc1OC)C(C)C,–,"inconclusive [activator, single point]"
c1ccc(C[n+]2cccc(-c3ccccc3)c2)cc1,inactive: 21.8%,–
Cc1ccc(S(=O)(=O)N2CCOCC2)cc1C(=O)OCC(=O)N(Cc1ccccc1)C(C)C,–,"inconclusive [activator, partial curve, poor fit]"
C=CS(=O)(=O)N(Cc1ccc(Cl)c(Cl)c1)C[C@@H](O)CO,–,"inconclusive [activator, single point]"

SMILES,"activity, positive = re-replication",Potency
O=C1C(Cc2ccccc2)Nc2ncnc(N3CCN(c4ccccc4)CC3)c2N1Cc1ccccc1 (stereo not given),inactive: 14%,–
N#CCCNC(=O)Cn1c(COc2ccc(Cl)cc2)nc2ccccc21,–,"inconclusive [activator, single point]"
Cc1cc(Br)ccc1NC(=O)CN(C)C(=O)CNC(=O)Cc1ccccc1,inactive: -5.04%,–
COc1ccc(C(=O)NC(=S)NNC(=O)c2ccncc2)cc1Br,–,"inconclusive [activator, full curve]"
COC(=O)c1[nH]c2cc(OC)ccc2c1N=CN(C)C,–,"inconclusive [activator, partial curve, poor fit]"
COc1ccc(-c2c(C)oc3ccc(C)cc23)cc1,–,"inconclusive [activator, single point]"
Nc1nc(CN2CCc3ccccc3C2)nc(Nc2ccccc2)n1,–,"inconclusive [activator, single point]"
CN(CC(=O)Nc1ccccc1Cl)C(=O)CCc1nc2ccccc2c(=O)[nH]1,inactive: 10.5%,–
Cc1cccc(-c2cc3nc(C)cc(NCCCn4ccnc4)n3n2)c1,–,"inconclusive [activator, partial curve, poor fit]"
O=C(Cc1ccc(Br)cc1)NCc1ccccc1,–,active: 5.8 µM
CC(C)N(CC#CCC(O)(c1ccccc1)c1ccccc1)C(C)C,–,"inconclusive [activator, partial curve, poor fit]"
Cc1cccc(CN2CCN(C(=O)CCl)CC2)c1,–,"inconclusive [activator, single point]"
COc1ccc(CCNC(=O)c2c(O)c3ccccc3[nH]c2=O)cc1OC,inactive: -2.91%,–
COc1ccc(S(=O)(=O)Nc2cc3c(C(C)=O)c(C)oc3c3ccccc23)cc1,–,"inconclusive [activator, full curve, poor fit]"
CC(C)=CCc1c(O)c(CC=C(C)C)c2occ(-c3ccc(O)cc3)c(=O)c2c1O,–,active: 9.2 µM
COCCN(C(=O)COC(=O)c1cccnc1SC)c1c(N)n(Cc2ccccc2)c(=O)[nH]c1=O,inactive: -0.334%,–
Cc1ccc(-c2csc(/C(C#N)=C(\O)CCl)n2)cc1,–,active: 16.4 µM
FC(F)(F)c1cccc(N2Cc3ccccc3C2)c1,–,"inconclusive [activator, partial curve, poor fit]"
CCOC(=O)c1cn2nc(-c3ccc(OCC)cc3)cc2nc1C1CCN(C(=O)OC(C)(C)C)CC1,–,"inconclusive [activator, partial curve, poor fit]"
COc1ccc(OC)c(-c2csc(N(CC3CCCO3)C(=O)Cc3ccccc3)n2)c1 (stereo not given),inactive: 8.53%,–
Cc1nc(SCC(=O)NCCc2ccccc2)nc(C)c1C,–,"inconclusive [activator, single point]"
Nc1ccc(C(=O)n2c3ccccc3c3ccccc32)cc1,–,"inconclusive [activator, full curve, poor fit]"
